# Assay results as given in PubChem BioAssay AID588795 (National Center for Advancing Translational Sciences (NCATS), 2011).
# Screen size: about 390,000 compounds; about 1,400 (0.36%) were called active. The shares of active, inactive and inconclusive entries below differ from those in the screen. The call rests on the fitted dose curve; in most records, active means well fitted inhibition curve with a large enough effect; inconclusive means small, poorly fitted or top-dose-only effect; inactive means no such curve, though single readings can be large or run the other way. Where the call is inconclusive, the potency comes from a doubtful curve fit.
# Biological target: Flap endonuclease 1 (Homo sapiens) (UniProt P39748)
# Sequence of UniProt P39748 (P39748 whole entry, looked up): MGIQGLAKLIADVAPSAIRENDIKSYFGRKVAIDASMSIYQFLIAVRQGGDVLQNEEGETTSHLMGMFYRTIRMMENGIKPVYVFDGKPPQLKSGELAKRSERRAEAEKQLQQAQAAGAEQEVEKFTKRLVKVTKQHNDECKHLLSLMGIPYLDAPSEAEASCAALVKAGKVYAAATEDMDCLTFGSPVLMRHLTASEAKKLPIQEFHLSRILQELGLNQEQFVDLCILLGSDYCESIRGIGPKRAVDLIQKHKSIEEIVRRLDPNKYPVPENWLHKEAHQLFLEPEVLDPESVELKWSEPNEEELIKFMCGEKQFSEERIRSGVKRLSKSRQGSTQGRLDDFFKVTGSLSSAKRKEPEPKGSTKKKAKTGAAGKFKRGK
# Assay: qHTS Assay for the Inhibitors of Human Flap endonuclease 1 (FEN1). Further: nearly all actives have a fitted effect of over 65% in size.
# Settings: Recombinant FEN1 flap cleavage, fluorescence, 15 min; series mostly up to 114 µM
# Method in brief: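 In this screen, 50 nM flap DNA substrate was added to 10 nM FEN1 pretreated with compound for 15 min at room temperature; cleavage was followed with reads at 0 and 15 min, and Hill fitting gave concentration–response parameters.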
# Potency means the concentration at half of the fitted maximal effect; tags describe the fitted curve by direction and shape.
row,Compound,Potency
1,C#C[C@]1(O)CC[C@H]2[C@@H]3CCc4cc(OC5CCCC5)ccc4[C@H]3CC[C@@]21C,"inconclusive: 35.5 µM [inhibitor, partial curve, poor fit]"
2,CN(C)S(=O)(=O)Oc1cccc(C(=O)Nc2cccc(Cl)c2)c1,"inconclusive: 89.1 µM [inhibitor, partial curve, poor fit]"
3,CCc1ccccc1OCCOc1ccc(C)cc1OC,inactive
4,O=C(CNS(=O)(=O)c1ccccc1)NCC(=O)OCc1ccc(Br)cc1,"inconclusive: 89.1 µM [inhibitor, single point]"
5,Cc1cccc(-c2nc3c4ccccc4n(Cc4cccc(Cl)c4)c(=O)n3n2)c1,inactive
6,COc1ccc(NC(=O)c2ccc3c(SCC(=O)O)c4c(nc3c2)CCCC4)c(OC)c1,"inconclusive: 89.1 µM [inhibitor, single point]"
7,CCc1ccccc1OCC(=O)Nc1cccc(S(=O)(=O)NCc2ccco2)c1,"inconclusive: 35.5 µM [inhibitor, partial curve, poor fit]"
8,COc1cc(NC(=O)c2cc3c(s2)-c2ccccc2OC3)cc(OC)c1OC,"inconclusive: 28.2 µM [inhibitor, partial curve, poor fit]"
9,S=C(Nc1ccc(Cl)c(Cl)c1)NC1CCN(Cc2ccccc2)CC1,"inconclusive: 11.2 µM [inhibitor, partial curve, poor fit]"
10,O=c1c2ccccc2oc2ccc(-c3ccoc3)cc12,"inconclusive: 31.6 µM [inhibitor, full curve]"
11,Cc1ccccc1CC1C(=O)Nc2ccc(Br)cc21 (stereo unspecified),"inconclusive: 79.4 µM [inhibitor, partial curve, poor fit]"
12,Cn1c(=O)n(C)c2cc(N3CCOCC3)c(NS(=O)(=O)c3ccc(C(C)(C)C)cc3)cc21,"inconclusive: 79.4 µM [inhibitor, partial curve, poor fit]"
13,COc1ccc(NC(=O)c2cc(S(=O)(=O)N3CCc4ccccc43)cn2C)cc1OC,"inconclusive: 6.31 µM [inhibitor, full curve, poor fit]"
14,Cc1cc(C)cc(NS(=O)(=O)c2ccc(-n3cccn3)cc2)c1,"inconclusive: 3.98 µM [inhibitor, partial curve, poor fit]"
15,CCn1cc(C(=O)O)c(=O)c2cc(F)c(N3CCN(C(=S)NC(=O)c4ccccc4Br)CC3)cc21,"inconclusive: 89.1 µM [inhibitor, partial curve, poor fit]"
16,Cc1ccc(N(C)S(=O)(=O)c2cc(-c3cnc(C4CC4)o3)ccc2C)cc1,"inconclusive: 44.7 µM [inhibitor, partial curve, poor fit]"
17,Cc1ccc2c(c1)S/C(=C/c1ccc[n+](C)c1)N2CCO,"inconclusive: 79.4 µM [inhibitor, partial curve, poor fit]"
18,O=c1[nH]c2cc3c(cc2cc1CN(Cc1ccccc1)Cc1nnnn1Cc1ccco1)OCCO3,inactive
19,Cc1ccc(C)c(NC(=O)Cn2c(=O)nc(-c3ccccc3)c3ccccc32)c1,inactive
20,S=c1[nH]nc(-c2ccco2)n1Cc1ccccc1,inactive
21,CCOC(=O)c1cc(C#N)c(SC)nc1C,inactive

row,Compound,Potency
1,CCCOc1ccc(-c2nn(-c3ccccc3)cc2C2NC(=O)NC(C)=C2C(=O)OC)cc1 (stereo unspecified),"inconclusive: 56.2 µM [inhibitor, partial curve, poor fit]"
2,CC(=O)c1sc(C(=O)O)c(-c2ccco2)c1-c1ccco1,"inconclusive: 25.1 µM [inhibitor, full curve, poor fit]"
3,CCOc1ccc(CNC(=O)CCCn2nc(C)c3sc4ccccc4c3c2=O)cc1,"inconclusive: 79.4 µM [inhibitor, partial curve, poor fit]"
4,CCc1ccc(-c2csc(-c3c[nH]c4ccccc34)n2)cc1,"inconclusive: 89.1 µM [inhibitor, partial curve, poor fit]"
5,COc1ccc(CCNC(=O)c2nnn(CC(=O)Nc3cccc(F)c3)c2N)cc1OC,"inconclusive: 56.2 µM [inhibitor, partial curve, poor fit]"
6,FC(F)(F)c1cc(CCN2C(=S)NC[C@@H]2CC2CCCCC2)cc(C(F)(F)F)c1,"inconclusive: 35.5 µM [inhibitor, partial curve, poor fit]"
7,COc1ccc(NC(=O)CSC2=Nc3ccccc3C3=NC(CCC(=O)NCc4ccc(F)cc4)C(=O)N23)cc1Cl (stereo unspecified),inactive
8,O=[N+]([O-])c1cc(Br)cc(C=Nc2ccc3c(c2)OCO3)c1O,"inconclusive: 100 µM [inhibitor, single point]"
9,CCCCC(CC)CNC(=O)CN(C)S(=O)(=O)c1ccc2c(c1)c(=O)n(C)c(=O)n2C (stereo unspecified),inactive
10,Nc1nc(SCC(=O)Nc2ncc(Cl)cc2Cl)n[nH]1,inactive
11,CC1=C(C(=O)Nc2cccnc2)C(c2ccccc2)n2nc(SCc3ccccc3Cl)nc2N1 (stereo unspecified),inactive
12,CCOc1cc(/C=C2/NC(=O)NC2=O)cc(Br)c1OCc1ccc(C(=O)O)cc1,"inconclusive: 79.4 µM [inhibitor, partial curve, poor fit]"
13,O=C(CSc1nc2nc(-c3cccs3)cc(C(F)(F)F)c2c(=O)[nH]1)Nc1ccc(F)c(F)c1,"inconclusive: 50.1 µM [inhibitor, partial curve, poor fit]"
14,O=C1C(Cl)=C(NCCc2ccccc2)C(=O)c2ccccc21,"inconclusive: 89.1 µM [inhibitor, single point]"
15,O=C(COC(=O)C1(c2ccc(F)cc2)CCCC1)NCc1ccco1,inactive
16,O=C1ON=C(c2ccccc2)/C1=C/c1ccccc1,inactive
17,Cc1cc(N/N=C/c2ccccc2O)c2ccccc2n1,"inconclusive: 31.6 µM [inhibitor, full curve]"
18,O=C(Nc1ccccc1)c1ccccc1O,inactive
19,CC1C(=O)Nc2ccc(S(=O)(=O)NCc3ccc(N(C)C)cc3)cc2NC1=O (stereo unspecified),inactive
20,CCc1nc2ccc(C(=O)N(C)CC(=O)Nc3ccc(Cl)c(C(F)(F)F)c3)cc2nc1CC,"inconclusive: 39.8 µM [inhibitor, partial curve, poor fit]"
